We go through 29 compounds from PubChem BioAssay AID1745853 (National Center for Advancing Translational Sciences (NCATS), 2022).

Structures are written as SMILES. The list shows a part of the results. Shown are side measurements of this screen, not its main read-out; they come without a call.

Common to all, as to assay: Primary Screen for Target Class Profiling of Small Molecule Inhibitors of Methyltransferases
In assay [1] the target is Glycine N-methyltransferase (Homo sapiens) (UniProt Q14749). To be noted: purified enzyme, MTase-Glo SAH luminescence; measured here: GNMT inhibition; at 40 µM; stronger effect = lower value. The essentials:
(§1)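 Each enzyme was reacted with SAM and its substrate, with compounds tested once at 40 uM; SAH formed was read by MTase-Glo luminescence.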

The target in assay [2] is Guanidinoacetate N-methyltransferase (Homo sapiens) (UniProt Q14353). To be noted: purified enzyme, MTase-Glo SAH luminescence; measured here: GAMT inhibition; at 40 µM; stronger effect = lower value. The essentials: as §1
For assay [3], the target named is Histamine N-methyltransferase (Homo sapiens) (UniProt P50135). To be noted: purified enzyme, MTase-Glo SAH luminescence; measured here: HNMT inhibition; at 40 µM; stronger effect = lower value. The essentials:
as §1

In assay [4] the target is Nicotinamide N-methyltransferase (Homo sapiens) (UniProt P40261). To be noted: purified enzyme, MTase-Glo SAH luminescence; measured here: NNMT inhibition; at 40 µM; stronger effect = lower value. The essentials: as §1
Assay [5] concerns the target Phenylethanolamine N-methyltransferase (Homo sapiens) (UniProt P11086). To be noted: purified enzyme, MTase-Glo SAH luminescence; measured here: PNMT inhibition; at 40 µM; stronger effect = lower value. A digest of the protocol:
as §1
On the % scale 0 is the no-effect control and ±100 the full control effect.

`O=C(NCc1ccc(F)cc1)N1Cc2ccccc2-n2cccc2C1c1ccc(Cl)cc1` (stereo not given): the activity change, negative = inhibition was -0.772% in assay [1]; 0% in assay [2]; -0.982% in assay [3]; -2.59% in assay [4]; 4.3% in assay [5].

With `Cc1ncc2c(n1)C[C@@H]1CC[C@H]2N1C(=O)C1CCC1`, the activity change, negative = inhibition in assay [1] was -4.82%; in assay [2] it was -4.57%; in assay [3], -2.85%; in assay [4], -9.64%; in assay [5], -6.29%.

For the compound `Cc1ccccc1NC(=O)N1Cc2ccccc2-n2cccc2C1c1cccs1` (stereo not given), the activity change, negative = inhibition in assay [1] is 6.68%; in assay [2] it was 0%; in assay [3] it was 1.53%; in assay [4], -1.94%; in assay [5], 4.16%.

Turning to `CCOc1ccc(C2c3cccn3-c3ccccc3CN2C(=O)Nc2cccc(Cl)c2)cc1` (stereo not given), the activity change, negative = inhibition in assay [1] was -7.16%; in assay [2], 0%; in assay [3], -1.88%; in assay [4], -2.27%; in assay [5], 1.27%.

Consider `COC1C(O)C(C)OC(OC2C(CO)O[C@@H](O[C@@H]3CC4CCC5C(CC[C@]6(C)[C@@H](C7=CC(=O)OC7)CC[C@]56O)[C@@]4(C)[C@H](O)C3)C(O)C2O)C1O` (stereo not given in full), for which the activity change, negative = inhibition in assay [1] is 0%; in assay [2] it was 6.72%; in assay [3], 9.58%; in assay [4], -5.97%; in assay [5] it was 1.66%.

As to `COc1ccc(C)cc1NC(=O)N1Cc2ccccc2-n2cccc2C1c1ccc(OC)c(OC)c1` (stereo not given), the activity change, negative = inhibition in assay [1] turned out to be 12.7%; in assay [2], 1.23%; in assay [3] it was 5.72%; in assay [4], 2.17%; in assay [5], 8.44%.

Turning to `Cc1ccccc1NC(=O)N1Cc2ccccc2-n2cccc2C1c1ccccc1Cl` (stereo not given), the activity change, negative = inhibition in assay [1] is 6.87%; in assay [2] it was -0.961%; in assay [3] it was -3.28%; in assay [4] it was -9.04%; in assay [5] it was -1.27%.

As for `COc1ccc(-c2cc([C@H]3CN4CC[C@H]3C[C@@H]4COC(=O)NC3CCCCC3)nc(C)n2)cc1`, the activity change, negative = inhibition in assay [1] was -4.92%; in assay [2] it was -6.92%; in assay [3], -2.48%; in assay [4], -16%; in assay [5], 8.19%.

`COCCCNC(=O)N1Cc2ccccc2-n2cccc2C1c1ccc(OC)c(OC)c1` (stereo not given): the activity change, negative = inhibition was 4.91% in assay [1]; 0% in assay [2]; 1.1% in assay [3]; -1.16% in assay [4]; 3.96% in assay [5].

In the case of `O=C(Nc1ccc(F)cc1)N1Cc2ccccc2-n2cccc2C1c1cccs1` (stereo not given), the activity change, negative = inhibition is 7.49% in assay [1]; 0.767% in assay [2]; -2.89% in assay [3]; -6.07% in assay [4]; -1.82% in assay [5].

With `O=C(N[C@H]1N=C(c2ccccc2F)c2cccc3c2N(CC3)C1=O)c1cc2ccccc2[nH]1`, the activity change, negative = inhibition in assay [1] was 4.16%; in assay [2], -10.9%; in assay [3], 3.73%; in assay [4], -25.2%; in assay [5], -2.08%.

As to `CN1[C@@H]2CC[C@H]1CC(OC(=O)C1C=Nc3ccccc31)C2` (stereo not given in full), the activity change, negative = inhibition in assay [1] was -6.93%; in assay [2] it was -1.97%; in assay [3] it was -8.15%; in assay [4], -13.6%; in assay [5], -6.48%.

Regarding `COc1ccc(CN(C(=O)[C@@H](N)Cc2c(C)cc(C(N)=O)cc2C)[C@@H](C)c2ncc(-c3ccccc3)[nH]2)cc1C(=O)O`, the activity change, negative = inhibition in assay [1] was -2.75%; in assay [2], 5.1%; in assay [3] it was -2.86%; in assay [4], -16%; in assay [5], -6.24%.

For the compound `C/C=C(\C)C(=O)OC1C(C)OC(OC2C(C)OC(OC3CCC4(C)C(=CCC5C4CCC4(C)C(C(C)OC6OC(COC7OC(CO)C(O)C(O)C7O)C(O)C(O)C6O)CCC54O)C3)CC2OC)C(O)C1OC` (stereo not given), the activity change, negative = inhibition in assay [1] is 0%; in assay [2], 19.8%; in assay [3], 10.9%; in assay [4], 8.92%; in assay [5] it was 6.44%.

For the compound `O=C(Nc1cc(F)ccc1F)N1Cc2ccccc2-n2cccc2C1c1ccc(F)cc1` (stereo not given), the activity change, negative = inhibition was 3.27% in assay [1]; 0% in assay [2]; 3.56% in assay [3]; 1.73% in assay [4]; 5.96% in assay [5].

Regarding `O=C(Nc1cccc(Cl)c1)N1Cc2ccccc2-n2cccc2C1c1ccc(F)cc1` (stereo not given), the activity change, negative = inhibition was found to be 2.72% in assay [1]; 0.36% in assay [2]; 4.09% in assay [3]; 5.11% in assay [4]; 6.35% in assay [5].

For the compound `Cc1nc(CCN)no1`, the activity change, negative = inhibition in assay [1] was -5.57%; in assay [2] it was -11.9%; in assay [3], -5.59%; in assay [4], -9.32%; in assay [5], -11.4%.

Turning to `C=CC(C)(C)c1[nH]c2c(CC=C(C)C)cc(CC=C(C)C)cc2c1C[C@@H]1NC(=O)[C@H](C)NC1=O`, the activity change, negative = inhibition in assay [1] was 0.845%; in assay [2], -1.34%; in assay [3], 6.16%; in assay [4], -7.84%; in assay [5], -0.855%.

Regarding `Cc1ccccc1-n1c(Cn2ncc3c(N)ncnc32)nc2cccc(C)c2c1=O`, the activity change, negative = inhibition was -1.51% in assay [1]; 5.12% in assay [2]; 7.73% in assay [3]; -18.7% in assay [4]; 3.94% in assay [5].

With `CN(C)c1ccc(C2c3cccn3-c3ccccc3CN2C(=O)Nc2cccc(Cl)c2)cc1` (stereo not given), the activity change, negative = inhibition in assay [1] was -5.45%; in assay [2], -2.87%; in assay [3], -11.6%; in assay [4], -10.7%; in assay [5] it was -6.19%.

Consider `COc1ccccc1NC(=O)N1Cc2ccccc2-n2cccc2C1c1ccccc1C` (stereo not given), for which the activity change, negative = inhibition in assay [1] is 1.39%; in assay [2] it was 1.57%; in assay [3] it was 0.893%; in assay [4] it was -1.39%; in assay [5], -3.14%.

As to `C#C[C@H]1CN2CC[C@H]1C[C@@H]2CNS(=O)(=O)c1cccs1`, the activity change, negative = inhibition was -6.36% in assay [1]; -7.82% in assay [2]; -3.81% in assay [3]; -8.97% in assay [4]; 5.18% in assay [5].

Take `C[C@]12CCC3C(CC[C@H]4C[C@H](O)CC[C@]34C)C1CC[C@@H]2C(=O)CO` (stereo not given in full): the activity change, negative = inhibition in assay [1] was -2.1%; in assay [2], 14.4%; in assay [3], 7.2%; in assay [4] it was -5.21%; in assay [5], 5.08%.

As for `CCOC(=O)CNC(=O)N1Cc2ccccc2-n2cccc2C1CC` (stereo not given), the activity change, negative = inhibition in assay [1] is -2.65%; in assay [2], 3.49%; in assay [3], -4.42%; in assay [4] it was -1.61%; in assay [5] it was -0.616%.

Turning to `COc1ccc(OC)c(C(O)C(C)N)c1` (stereo not given), the activity change, negative = inhibition in assay [1] was 3.73%; in assay [2], 10.8%; in assay [3] it was 5.68%; in assay [4] it was -1.63%; in assay [5] it was 6.44%.

For `COc1ccc(C)cc1NC(=O)N1Cc2ccccc2-n2cccc2C1c1ccccc1` (stereo not given), the activity change, negative = inhibition in assay [1] was -3.76%; in assay [2], 1.07%; in assay [3], 0.263%; in assay [4], -5.92%; in assay [5], -0.448%.

With `Cc1ccc([C@H]2C[C@@H](O)[C@@H](O)[C@@H]2NCC(C)C)cc1`, the activity change, negative = inhibition in assay [1] is -4.38%; in assay [2], -6.47%; in assay [3], -2.49%; in assay [4], -10.5%; in assay [5] it was -4.03%.

For the compound `COC(=O)[C@]12CCCC(C)(C)C1CCc1cc(C(C)C)c(O)c(O)c12` (stereo not given in full), the activity change, negative = inhibition in assay [1] was 2.4%; in assay [2] it was -3.34%; in assay [3], 7.09%; in assay [4], -20.2%; in assay [5], -2.49%.

On to `CCCCCCn1c(=O)c(C(=O)Nc2ccc(C(=O)OCCC)cc2)c(O)c2ccccc21`, for which the activity change, negative = inhibition in assay [1] is -5.11%; in assay [2] it was -9.17%; in assay [3], 5.75%; in assay [4], -20.7%; in assay [5], -2.5%.
